The values that follow come from PubChem BioAssay AID1508624 (National Center for Advancing Translational Sciences (NCATS), 2021).

About 120 (0.25%) of roughly 48,000 compounds were called active. Inconclusive results (about 4%) are left out. Calls come from the whole dose curve; as a rule, active = well fitted activation curve with a large enough effect; inconclusive = small, poorly fitted or top-dose-only effect, or another doubt; inactive = no such curve, though single readings can be large or run the other way. The list shows a part of the results.

The nature of this test: Primary qHTS for Identification of Small Molecule Activators of Huntingtin-Antisense Promoter Activity. Note: nearly all actives have a fitted effect of over 55% in size. As to conditions: HEK293 HTT-AS promoter firefly luciferase reporter, 24 h; series mostly up to 57.5 µM; activity change, positive = activation: at the top concentration. The procedure, abridged:
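Firefly luciferase readout (Dual-Glo, 10 min RT) after 24 h, 37 °C compound exposure (final up to 57.5 uM) of HEK293 reporter cells cultured 24 h beforehand; PTC124 at 50 uM final as control inhibitor; activity scaled vehicle 0%, zero RLU -100%.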
Background: In qHTS, concentration-response curves come from the screen itself.
`COC(=O)c1ccc(NC(=O)C2CCN(C(=O)c3ccc(F)cc3)CC2)cc1`: the “activity change, positive = activation” value is inactive: -12.3%.
Consider `N#Cc1cccc(NC(=O)C2CCN(c3ncccn3)CC2)c1`, for which the “activity change, positive = activation” value is inactive: -3%.
For `CCS(=O)(=O)CCSc1nc(-c2ccc(Br)cc2)cc(-c2ccccc2)c1C#N`, the “activity change, positive = activation” value is inactive: 2.47%.
With `CCOc1cc(C(=O)Nc2ccc(-c3nc4ncccc4o3)cc2C)cc(OCC)c1OCC` the figure was inactive: 2.78%.
With `Cc1cccc(NC(=O)CCn2nc(-c3ccccc3)c3ccccc3c2=O)c1` the figure was inactive: -17.6%; with `CC1=C(C(=O)Nc2ccccc2C)C(c2cccnc2)n2nc(SCc3ccccc3F)nc2N1` (stereo not given), inactive: -5.83%.
Turning to `O=C(CCn1c(=O)c2cccn2c2cccnc21)N1CCN(c2cccc(Cl)c2)CC1`, the “activity change, positive = activation” value is inactive: -33.9%.
On to `CCc1ccc(OCC(=O)N(Cc2ccc(OC)cc2)C2CCS(=O)(=O)C2)cc1` (stereo not given), for which the “activity change, positive = activation” value is inactive: -14.8%.
With `Cc1cccc(-c2nc(SCC(=O)Nc3ccc4c(c3)OCO4)c(-c3ccccc3)[nH]2)c1` the figure was inactive: -31.7%.
As for `CN1C(=O)Cc2cc(S(=O)(=O)NCCc3ccccc3)ccc21`, the “activity change, positive = activation” value is inactive: 9.73%.
Regarding `COc1ccc(NC(=O)C2CCCN2S(=O)(=O)c2ccc3nc(-c4ccccc4)[nH]c3c2)cc1` (stereo not given), the “activity change, positive = activation” value is inactive: -13.1%.
With `CCOC(=O)c1cc(-c2ccc(C)cc2)n(CCC(=O)Nc2ccc(OC)c(OC)c2)c1C` the figure was inactive: -28.9%.
Consider `COCCCNC(=O)Cn1cnc2sc(C)c(S(=O)(=O)N3CCN(c4ccccc4OC)CC3)c2c1=O`, for which the “activity change, positive = activation” value is inactive: 12.7%.
With `CCN1CCN(C(=O)c2ccc3c(c2)N(Cc2cccc(F)c2)C(=O)c2ccccc2S3)CC1` the figure was inactive: -12.3%; with `CCCCCN1C(C(=O)c2ccccc2)=C(NC(=O)c2ccccc2Cl)c2ccccc2S1(=O)=O`, inactive: -2.93%; with `COc1ccc(CCNC(=O)c2ccc3c(c2)N(Cc2ccc(Cl)cc2)CCS3)c(OC)c1`, inactive: -24.7%.
As for `Cc1ccc(NC(=O)CCC(=O)N2Cc3ccccc3Oc3ncccc32)cc1`, the “activity change, positive = activation” value was inactive: -15%.
In the case of `O=C(CCc1ccccc1)NC1CC(=O)N(c2ccccc2)C1` (stereo not given), the “activity change, positive = activation” value is inactive: -7.97%.
The value for `COc1cccc(OC)c1C(=O)Nc1ccc2c(c1)N(C(C)=O)CCC2` was inactive: -18.1%; that for `O=C1CC(c2ccc(Cl)cc2)Sc2nc(-c3ccc(F)cc3)nn21` (stereo not given) was inactive: 6.04%; that for `CC(C)(C)c1ccc(C(=O)CCCN2CCC(OC(c3ccccc3)c3ccccc3)CC2)cc1` was inactive: -7.95%.
On to `COc1ccc(-c2cnc(C)o2)cc1S(=O)(=O)Nc1ccc(C)c(N(C)C)c1`, for which the “activity change, positive = activation” value is inactive: -18.9%.
Take `CCn1c(=O)cc(SCC(=O)NCCc2ccc(OC)cc2OC)c2ccccc21`: the “activity change, positive = activation” value is inactive: -20.6%.
For the compound `COCCCNC(=O)CSc1nc(-c2ccccc2)[nH]c1-c1ccc(C)cc1`, the “activity change, positive = activation” value is inactive: -21.6%.
The value for `CCc1ccc(-n2c(=O)c3c4c(sc3n(CC(=O)NC(C)CC)c2=O)CCCC4)cc1` (stereo not given) was inactive: -17%.
As for `CCc1cnc2c(c1SCC(=O)Nc1ccc(C)cc1C)c(=O)n(C)c(=O)n2C`, the “activity change, positive = activation” value was inactive: -7%.
As for `CCCn1c(=O)c2sccc2n2c(CCCC(=O)Nc3cccc(CC)c3)nnc12`, the “activity change, positive = activation” value was inactive: -6.74%.
The value for `O=C(O)CCc1ccc(-c2ccccc2)n1CC(=O)Nc1ccccc1C(F)(F)F` was inactive: -8.78%.
The value for `COc1ccccc1CNC(=O)CCCCn1c(=O)c2ccccc2n(CC(=O)Nc2cc(Cl)ccc2C)c1=O` was inactive: -46.6%.
With `Cc1ccccc1Nc1nn2c(=O)c3ccc(C(=O)N4CCCC(C)C4)cc3nc2s1` (stereo not given) the figure was inactive: -7.91%; with `COc1ccc2c(c1)c1c(c(=O)n(-c3ccccc3C)c(=O)n1CC(=O)Nc1c(C)cccc1C)n2C`, inactive: -6.13%; with `O=c1c2[nH]c3ccccc3c2nc(SCc2cccc(F)c2)n1-c1ccccc1`, inactive: -22.1%.
As to `COc1cccc(Nc2nc(-c3ccccc3)c3cc(C)ccc3n2)c1`, the “activity change, positive = activation” value is inactive: -21.3%.
Consider `Cc1cccc(CNC(=O)c2ccc(Cn3c(=O)c4cccn4c4cccnc43)cc2)c1`, for which the “activity change, positive = activation” value was inactive: -17.3%.
For `C[C@H](Cn1cnc2c(N)ncnc21)OCP(=O)(O)O`, the “activity change, positive = activation” value is inactive: -3.54%.
The value for `O=C(CC1N=C2c3ccccc3N=C(SCc3ccccc3F)N2C1=O)NCc1cccs1` (stereo not given) was inactive: 3.82%; that for `CCCCNc1cc(C(=O)O)cc(S(N)(=O)=O)c1Oc1ccccc1` was “inactive”.
Take `CC1CCCCN1S(=O)(=O)c1ccc2c(c1)oc(=O)n2CC(=O)Nc1ccc(Cl)cc1` (stereo not given): the “activity change, positive = activation” value is inactive: -29.8%.
The value for `COc1cc(C2CC(=O)Nc3c2c(=O)nc2c(C)cccn32)cc(OC)c1OC` (stereo not given) was inactive: -7.41%.
In the case of `CCN(CCCNC(=O)c1cc2cc3ccc(OC)cc3nc2s1)c1ccccc1`, the “activity change, positive = activation” value was inactive: -15.8%.
With `Cc1ccc(NC(=O)C(Cc2ccccc2)NS(=O)(=O)c2cccc3nsnc23)c(C)c1` (stereo not given) the figure was inactive: -23.3%.
The value for `CCc1ccc(-c2nn(CC(=O)NC3CCCCC3)c3c2cnc2ccc(OC)cc23)cc1` was inactive: 2.94%; that for `Cc1ccc(Cl)cc1NC(=O)C(=O)NCCc1sc(-c2ccc(F)cc2)nc1C` was inactive: -4.66%; that for `COc1ccc(CC(=O)Nc2sc3c(c2C(=O)Nc2c(C)cccc2C)CCCCC3)cc1` was inactive: -5.62%.
With `COc1ccc(NC(=O)CSC2=Nc3ccccc3C3=NC(CC(=O)NCc4ccc(F)cc4)C(=O)N23)cc1` (stereo not given) the figure was inactive: -3.54%; with `COc1cccc(NC(=O)/C(C#N)=C\c2cn(Cc3ccc(Cl)cc3)c3ccccc23)c1`, inactive: 19.9% [at 11.5 µM, percent change from vehicle, -100% = no light].
For `CCCOc1ccc(C(=O)Nc2c(C(=O)c3ccc(C)cc3)oc3ccccc23)cc1`, the “activity change, positive = activation” value was inactive: 0.379%.
Regarding `COc1ccc(CNC(=O)Cn2c(=O)oc3cc(S(=O)(=O)N4CCCC4)ccc32)cc1`, the “activity change, positive = activation” value was inactive: -25.1%.
The value for `Cc1cccc(S(=O)(=O)c2cn(Cc3ccccc3)c3cc(N4CCCCC4C)c(F)cc3c2=O)c1` (stereo not given) was inactive: -15.7%.
The value for `COc1ccc(-c2oc3c(CC=C(C)C)c(OC4O[C@H](CO)[C@@H](O)[C@H](O)[C@@H]4O)cc(O)c3c(=O)c2OC2O[C@@H](C)[C@H](O)[C@@H](O)[C@@H]2O)cc1` (stereo not given in full) was inactive: -12.7%.
The value for `CCCCc1ccc(C(=O)N/C(=C\c2ccc(C)cc2)C(=O)NC2CCCCC2)cc1` was inactive: -10.3%.
Turning to `Cc1cc(C(F)F)n2nc(C(=O)Nc3ccc(F)c(Cl)c3)nc2n1`, the “activity change, positive = activation” value is inactive: 3.22%.
As to `Cc1ccc(Cl)cc1N1CCN(C(=O)c2ccc(C)c(-n3c(C)nc4cccnc43)c2)CC1`, the “activity change, positive = activation” value was inactive: -52.2%.
Take `CCc1nc2ccc(C(=O)N3CCN(c4ccc(Cl)cc4)CC3)cc2nc1CC`: the “activity change, positive = activation” value was inactive: 0.281%.
In the case of `O=C(Nc1ccc2nn(-c3ccccc3)nc2c1)c1ccc(-c2cccc(Cl)c2)o1`, the “activity change, positive = activation” value was inactive: 25.8%.
Turning to `CCOC(=O)[C@H](CCc1ccccc1)N[C@@H](C)C(=O)N(CC(=O)O)C1Cc2ccccc2C1`, the “activity change, positive = activation” value was inactive: -5.97%.
For `O=C(CSc1nnc(CNC(=O)c2c(F)cccc2Cl)o1)Nc1cccc(F)c1`, the “activity change, positive = activation” value was inactive: -19%.
With `CCOc1ccc(NS(=O)(=O)c2ccc(NC(=O)N3CCCC3)cc2)cc1` the figure was inactive: -14.5%.
On to `O=C(c1cccs1)N1CCCc2cc(NS(=O)(=O)c3ccc(F)cc3)ccc21`, for which the “activity change, positive = activation” value was inactive: 0%.
With `COCCCNC(=O)CCc1c(C)nc2cc(-c3ccc(Cl)cc3)nn2c1C`, the “activity change, positive = activation” value was inactive: -77.7%.
Turning to `COc1ccccc1NC(=O)C1=C(C)Nc2nc(SCc3cc(C)ccc3C)nn2C1c1ccccc1` (stereo not given), the “activity change, positive = activation” value was inactive: 5.21%.
As for `O=C(c1ccc2c(=O)n(CCc3ccccc3)c(=O)[nH]c2c1)N1CCN(c2ccc(Cl)cc2)CC1`, the “activity change, positive = activation” value was inactive: -33.8%.
As to `COc1cc2nc(Cl)nc(N)c2cc1OC`, the “activity change, positive = activation” value was inactive: -7.19%.
Consider `CCn1c(C)c(C)c2cc(C(=O)NCCc3ccc(C)cc3)ccc21`, for which the “activity change, positive = activation” value is inactive: -0.568%.
The value for `Cc1nn2c(-c3cccc(NC(=O)c4ccc(Cl)cc4)c3)nnc2c2ccccc12` was inactive: -12.8%; that for `CCN1CCC(N(Cc2ccc3c(c2)OCO3)C(=O)Nc2ccc(Br)c(C)c2)CC1` was inactive: -19.1%; that for `CCS(=O)(=O)N1CCc2cc(C(=O)Nc3cc(Cl)ccc3C)ccc21` was inactive: -14%.
Regarding `CCOC(=O)c1c(C)[nH]c(CCC(=O)Nc2ccccc2C(=O)OC)c1C`, the “activity change, positive = activation” value is inactive: -3.98%.
The value for `CCn1c(=O)n(CC)c2cc(N3CCCCC3)c(NC(=O)Nc3cc(Cl)ccc3OC)cc21` was inactive: -33.4%; that for `COc1ccc(-n2c(-c3ccco3)nc3c(cnn3-c3ccc(C)cc3)c2=O)cc1` was inactive: -35.3%; that for `COc1ccc(CCNC(=O)CCS(=O)(=O)c2ccc3c(c2)oc(=O)n3C)cc1OC` was inactive: 11.4% [at 11.5 µM, percent change from vehicle, -100% = no light].
Consider `CCCCOCc1cc(CN2CCN(c3cccc(Cl)c3)CC2)c(O)c2ncccc12`, for which the “activity change, positive = activation” value is inactive: -38.6%.
The value for `Cc1ccc(N2CCN(C(=O)c3cn(C)c4ccc(S(=O)(=O)N(C)C5CCCCC5)cc4c3=O)CC2C)cc1` (stereo not given) was inactive: -1.61% [at 11.5 µM, percent change from vehicle, -100% = no light]; that for `Cn1ccnc1SCC(=O)Nc1cc(Cl)ccc1Cl` was inactive: 11.2%; that for `CCCCNC(=O)CCc1c(C)nc2c(c(C)nn2-c2ccccc2)c1C` was inactive: -22.6%.
The value for `CCN(CC)c1ccc(C2C(C(N)=O)=C(C)Nc3ncnn32)cc1` (stereo not given) was inactive: -17%; that for `Cc1ccc(NC(=O)C2CCCN2S(=O)(=O)c2cccc3cccnc23)cc1C` (stereo not given) was inactive: -30.7%; that for `Cc1ccccc1CN1CCCN(CC(=O)Nc2c(C)cccc2C)S1(=O)=O` was inactive: -12.3%.
For the compound `O=C(NCCc1ccccc1)c1cc(Sc2ccc(F)cc2F)nc2ccccc12`, the “activity change, positive = activation” value was inactive: -8.29%.
Take `COc1cccc(OCc2nc3ccccc3n2CCOc2cccc(C)c2)c1`: the “activity change, positive = activation” value is inactive: 8.88%.
The value for `Cc1cccc(CS(=O)(=O)c2ncc(Cl)c(C(=O)NCc3ccccc3)n2)c1` was inactive: -85.5%; that for `COc1ccc(NS(=O)(=O)c2ccc3[nH]c4c(c3c2)CCCCCC4)cc1` was inactive: -27.7%.
The value for `Cn1c(=O)c2c(nc(SCC(=O)Nc3ccc(F)cc3)n2Cc2ccccc2)n(C)c1=O` was inactive: 12.4%.
For `Fc1ccc(CNc2nc(-c3ccccc3)cc(C(F)(F)F)n2)cc1`, the “activity change, positive = activation” value is inactive: -24.9%.
With `Cc1cc(O)c(C(C)C)cc1Cl` the figure was inactive: -0.0415%.
On to `O=C1CC(c2ccc(Cl)cc2)N=C(NC(=O)c2ccccc2)N1` (stereo not given), for which the “activity change, positive = activation” value was inactive: -9.81%.
The value for `Cc1ccccc1CS(=O)(=O)Cc1ccc(C(=O)NCc2ccc(F)cc2)o1` was inactive: -32.4%; that for `Cc1ccc(C)c(NC(=O)c2cc(=O)c3cc(C)cc(C)c3o2)c1` was inactive: 11.2% [at 11.5 µM, percent change from vehicle, -100% = no light]; that for `Cc1ccc(NC(=O)Cn2c(=O)ccc3cc(S(=O)(=O)N4CCC(C)CC4)ccc32)cc1Cl` was inactive: -43.2%.
With `COc1cccc(NC(=O)CCNC(=O)Cn2ccc3ccccc3c2=O)c1` the figure was inactive: 0%.
